About 220 (0.56%) of roughly 39,000 compounds showed activity. The list shows a part of the results.

Our source for the relative growth values is the supplement of paper PMC9446081.
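Further: static incubation at 37 °C against the wild-type strain, values averaged over two biological replicates.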

This experiment deals with Escherichia coli K-12 BW25113. Put plainly: relative growth (OD600 normalised to plate interquartile mean) (fraction); higher = less growth inhibition, active = 0.2 or less. The note with it: 50 µM; LB; incubation time: overnight (16-24 h).
For `CO[C@@]1(NC(=O)[C@@H](C(=O)O)c2ccc(O)cc2)C(=O)N2C(C(=O)O)=C(CSc3nnnn3C)CO[C@@H]21`, the relative growth is inactive: 0.983.

For `C[C@H]1CN([C@@H](C)CO)C(=O)c2cc(NC(=O)Nc3ccccc3)ccc2O[C@@H]1CN(C)S(=O)(=O)c1cn(C)cn1`, the relative growth was inactive: 1.

`CC(=O)[C@]1(N)Cc2c(O)c3c(c(O)c2[C@@H](O[C@H]2C[C@H](O)[C@H](O)CO2)C1)C(=O)c1ccccc1C3=O`: the relative growth is inactive: 0.983.

Take `Cc1ccc(S(=O)(=O)N(C)C[C@@H]2Oc3c(NS(=O)(=O)c4cn(C)cn4)cccc3C(=O)N([C@H](C)CO)C[C@@H]2C)cc1`: the relative growth is inactive: 1.01.

With `C/C=C/C[C@@H](C)[C@@H](O)[C@H]1C(=O)N[C@@H](CC)C(=O)N(C)CC(=O)N(C)[C@@H]([C@@H](C)CC)C(=O)N[C@@H](C(C)C)C(=O)N(C)[C@@H](CC(C)C)C(=O)N[C@@H](C)C(=O)N[C@H](C)C(=O)N(C)[C@@H](CC(C)C)C(=O)N(C)[C@@H](CC(C)C)C(=O)N(C)[C@@H](C(C)C)C(=O)N1C`, the relative growth was inactive: 1.04.

`C[C@H]1CN([C@@H](C)CO)C(=O)c2cc(NS(=O)(=O)c3ccccc3)ccc2O[C@H]1CN(C)Cc1ccc(-c2ccccc2)cc1`: the relative growth was inactive: 0.959.

Turning to `Cc1noc(C)c1S(=O)(=O)Nc1ccc2c(c1)C(=O)N([C@H](C)CO)C[C@@H](C)[C@@H](CN(C)S(C)(=O)=O)O2`, the relative growth was inactive: 1.05.

In the case of `C[C@@H]1CCCCO[C@H](CN(C)Cc2ccccc2)[C@H](C)CN([C@@H](C)CO)C(=O)c2cc(NC(=O)Nc3ccc(F)cc3)ccc2O1`, the relative growth was inactive: 1.04.

In the case of `COc1ccc(CN(C)C[C@@H]2OCCCC[C@H](C)Oc3ccc(NS(=O)(=O)c4ccccc4)cc3C(=O)N([C@H](C)CO)C[C@H]2C)cc1`, the relative growth is inactive: 1.01.

Consider `Cn1cnc(S(=O)(=O)N2C[C@H](O)COC[C@H]3O[C@H](CC(=O)NCc4ccc(F)cc4)CC[C@@H]32)c1`, for which the relative growth is inactive: 0.985.

Turning to `C[C@@H]1CN([C@H](C)CO)C(=O)Cc2cc(NS(=O)(=O)c3ccc(Cl)cc3)ccc2O[C@H]1CN(C)S(C)(=O)=O`, the relative growth was inactive: 1.

On to `CCC(=C/[C@H](C)C/C=C/C(C)=C/[C@@H](C)C(=O)[C@@H](C)[C@H](O)[C@@H](C)C/C(C)=C/C(=O)O)/C=C/[C@@H]1OC(=O)C=C[C@@H]1C`, for which the relative growth was inactive: 0.948.

On to `O=C(C[C@@H]1C[C@@H]2c3cc(NC(=O)c4ccc5c(c4)OCO5)ccc3O[C@@H]2[C@H](CO)O1)NCc1ccccn1`, for which the relative growth was inactive: 1.

As for `COc1ccc(NC(=O)N(C)C[C@@H]2Oc3cc(C#CCN(C)C)ccc3S(=O)(=O)N([C@H](C)CO)C[C@@H]2C)cc1`, the relative growth was inactive: 0.987.

As to `C[C@@H](O)[C@H]1C(=O)N2C(C(=O)O)=C(SCCNC=N)C[C@H]12`, the relative growth is inactive: 1.01.

As for `C[C@H](CO)N1C[C@H](C)[C@@H](CN(C)Cc2ccc(Oc3ccccc3)cc2)Oc2ccc(NS(=O)(=O)c3cccs3)cc2C1=O`, the relative growth was inactive: 1.01.

Turning to `C[C@@H]1CN([C@H](C)CO)C(=O)c2cccc(NC(=O)C3CCOCC3)c2O[C@H]1CN(C)Cc1ccccc1`, the relative growth is inactive: 1.

On to `Cc1cnc(N)c(C)n1`, for which the relative growth is inactive: 1.02.

As to `NCC[C@H]1CC[C@@H](NC(=O)C2CC2)[C@@H](CO)O1`, the relative growth is inactive: 1.

In the case of `C[C@@H]1CCCCO[C@H](CN(C)S(=O)(=O)c2ccccc2)[C@@H](C)CN([C@@H](C)CO)C(=O)c2cc(NS(C)(=O)=O)ccc2O1`, the relative growth was inactive: 1.01.

For `C[C@@H]1CCCCO[C@H](CN(C)Cc2ccc(Cl)c(Cl)c2)[C@@H](C)CN([C@H](C)CO)C(=O)c2cc(NC(=O)Nc3cccc4ccccc34)ccc2O1`, the relative growth is inactive: 0.971.

Consider `C[C@@H]1CN([C@@H](C)CO)C(=O)c2c(c3ccccc3n2C)-c2ccccc2CO[C@@H]1CN(C)Cc1ccc(-c2ccccc2)cc1`, for which the relative growth was inactive: 0.998.

Regarding `C[C@H]1CN([C@@H](C)CO)C(=O)c2cc(NC(=O)Nc3cccc4ccccc34)ccc2O[C@@H]1CN(C)CC1CCCCC1`, the relative growth is inactive: 0.999.

For the compound `COCCOC(=O)N1C(=O)[C@@]2(c3cc(C#CCC(C(=O)OC)C(=O)OC)ccc31)[C@H](c1ccc(OCCO)cc1)N1[C@H](c3ccccc3)[C@H](c3ccccc3)OC(=O)[C@H]1[C@@H]2C(=O)N1CCCCCCC1`, the relative growth was inactive: 1.04.

`CC(C)NC(=O)N(C)C[C@H]1Oc2c(NC(=O)C3CCCCC3)cccc2C(=O)N([C@H](C)CO)C[C@H]1C`: the relative growth is inactive: 1.01.

Consider `Cc1noc(C)c1S(=O)(=O)Nc1ccc2c(c1)CC(=O)N([C@@H](C)CO)C[C@H](C)[C@H](CN(C)C(=O)Nc1ccc3c(c1)OCO3)O2`, for which the relative growth is inactive: 1.

With `CC(C)COc1c[nH]c(CO)cc1=O`, the relative growth is inactive: 0.961.

With `Cc1noc(C)c1S(=O)(=O)Nc1ccc2c(c1)C(=O)N([C@H](C)CO)C[C@H](C)[C@@H](CN(C)Cc1ccncc1)O2`, the relative growth was inactive: 0.922.

For the compound `C[C@@H]1CCCCO[C@H](CN(C)C(=O)Nc2cccc3ccccc23)[C@H](C)CN([C@@H](C)CO)C(=O)c2cc(NC(=O)Nc3ccc4c(c3)OCO4)ccc2O1`, the relative growth was inactive: 1.

Regarding `Cc1noc(C)c1NC(=O)Nc1ccc2c(c1)C(=O)N([C@@H](C)CO)C[C@H](C)[C@@H](CN(C)S(=O)(=O)c1cccs1)OCCCC[C@H](C)O2`, the relative growth was inactive: 0.989.

Take `C[C@H]1CNC(=O)[C@@H](CC(=O)N(CCOC(=O)NCCCCCC(=O)NO)Cc2ccccc2)C/C=C/CC[C@H](NC(=O)OC(C)(C)C)C(=O)O1`: the relative growth was inactive: 0.993.

In the case of `C[C@@H]1CN([C@H](C)CO)C(=O)c2cccc(NS(=O)(=O)c3ccc(Cl)cc3)c2O[C@H]1CN(C)S(=O)(=O)c1cn(C)cn1`, the relative growth is inactive: 0.98.

For the compound `Cc1ccc(S(=O)(=O)N(C)C[C@H]2OCCCC[C@@H](C)Oc3ccc(NC(=O)Nc4ccc(F)cc4)cc3C(=O)N([C@@H](C)CO)C[C@@H]2C)cc1`, the relative growth was inactive: 1.03.

Turning to `Cc1noc(C)c1S(=O)(=O)N(C)C[C@@H]1OCCCC[C@@H](C)Oc2ccc(NC(=O)Nc3ccc(F)cc3)cc2C(=O)N([C@@H](C)CO)C[C@H]1C`, the relative growth is inactive: 0.997.

In the case of `CN(C)S(=O)(=O)N(C)c1ccccc1`, the relative growth is inactive: 1.01.

Take `COc1ccc(S(=O)(=O)Nc2ccc3c(c2)C(=O)N([C@H](C)CO)C[C@@H](C)[C@H](CN(C)CC2CCCCC2)OCCCC[C@@H](C)O3)cc1`: the relative growth is inactive: 1.

As to `C=CC[C@@H](CC(=O)N(CCO)Cc1ccccc1)C(=O)NC[C@@H](OC(=O)[C@@H](CC=C)Cc1ccc(F)cc1)c1ccccc1`, the relative growth is inactive: 1.08.

As for `Cc1ccc(-c2ccc3c(c2)O[C@@H](CN(C)C(=O)NC(C)C)[C@H](C)CN([C@H](C)CO)S3(=O)=O)cc1`, the relative growth is inactive: 1.01.

`O=S(=O)(NCCCCN(C/C=C/c1ccc(F)cc1)C/C=C/c1ccc(F)cc1)c1cccc2cnccc12`: the relative growth is inactive: 1.02.

For the compound `Cc1cc(SC(=O)N/C=C/c2ccco2)c(C)cc1Cl`, the relative growth was inactive: 0.893.

For the compound `C[C@@H]1CN([C@@H](C)CO)C(=O)Cc2cc(NS(C)(=O)=O)ccc2O[C@H]1CN(C)C`, the relative growth is inactive: 0.985.

`Cl.Nc1ncnc(Nc2ccc(Cl)cc2)n1`: the relative growth is inactive: 1.03.

As for `C[C@@H]1CCCCO[C@@H](CN(C)C(=O)c2ccccc2)[C@H](C)CN([C@H](C)CO)C(=O)c2cc(NS(=O)(=O)c3ccc(Cl)cc3)ccc2O1`, the relative growth was inactive: 1.03.

As for `C[C@@H]1CN([C@@H](C)CO)C(=O)c2cccc(NC(=O)Nc3cccc4ccccc34)c2O[C@H]1CN(C)S(=O)(=O)c1cccc(F)c1`, the relative growth is inactive: 0.946.

In the case of `COCc1cn(CC[C@H]2CC[C@@H](NC(=O)CCN3CCCCC3)[C@@H](CO)O2)nn1`, the relative growth is inactive: 0.989.

`Cc1noc(C)c1S(=O)(=O)Nc1cccc2c1O[C@@H](CN(C)Cc1ccncc1)[C@@H](C)CN([C@H](C)CO)C2=O`: the relative growth was inactive: 0.941.

Consider `C[C@@H](Nc1nc(=O)cc(F)[nH]1)C(=O)O`, for which the relative growth was inactive: 0.995.

On to `O=C(O)C1CN(C(=O)c2cnccn2)C1`, for which the relative growth was inactive: 1.03.

In the case of `CC1CN(c2c(F)c(F)c3c(=O)c(C(=O)O)cn(C4CC4)c3c2F)CC(C)N1` (centres undefined), the relative growth was active: 0.0486.

Regarding `C[C@H]1CN([C@@H](C)CO)C(=O)Cc2cc(NC(=O)Nc3ccc(F)cc3)ccc2O[C@@H]1CN(C)C(=O)Nc1ccc(C(F)(F)F)cc1`, the relative growth is inactive: 1.

Turning to `C[C@@H]1CCCCO[C@@H](CN(C)C(=O)Cc2ccccc2)[C@@H](C)CN([C@H](C)CO)C(=O)c2cc(NC(=O)Nc3ccc(F)cc3)ccc2O1`, the relative growth is inactive: 1.01.

As to `CO[C@@H]1CN(C)C(=O)c2ccc(NC(=O)C3CCOCC3)cc2OC[C@@H](C)N(C(=O)Nc2ccc(C(F)(F)F)cc2)C[C@H]1C`, the relative growth was inactive: 0.855.

Take `C[C@@H]1CCCCO[C@H](CN(C)C(=O)Nc2cccc3ccccc23)[C@@H](C)CN([C@H](C)CO)C(=O)c2cc(NC(=O)Nc3ccccc3)ccc2O1`: the relative growth was inactive: 1.02.

As to `C[C@H](CO)N1C[C@H](C)[C@H](CN(C)Cc2ccc(C(F)(F)F)cc2)Oc2ccc(NC(=O)Cn3cnnn3)cc2C1=O`, the relative growth is inactive: 1.01.

As to `CCS(=O)(=O)NCC[C@@H]1CC[C@H](NS(=O)(=O)c2ccccc2C)[C@H](CO)O1`, the relative growth is inactive: 0.98.

Regarding `CCN1CCCC1=O`, the relative growth was inactive: 0.999.

On to `C[C@H]1CN([C@@H](C)CO)S(=O)(=O)c2ccc(C#Cc3ccccc3)cc2O[C@@H]1CN(C)C(=O)c1ccccn1`, for which the relative growth is inactive: 1.01.

Turning to `COc1cc2c(cc1OC)Cc1cc(OC)c(OC)cc1Cc1cc(OC)c(OC)cc1C2`, the relative growth is inactive: 0.875.

Take `CC(C)NC(=O)N(C)C[C@H]1OCc2cnnn2CCCC(=O)N([C@H](C)CO)C[C@@H]1C`: the relative growth is inactive: 1.
